The full ranking holds about 81,000 sequences; the median of “one-hybrid fitness for binding NBS DNA” is about -0.1, and the highest 2% start at about 0.36. The list shows a part of the results.

B1: Caulobacter ParB omega fusion; a variant is named by its letters at X, in order, B8GW30 (parent)
chain: MESVVVGEPGMSEGRRGLGRGLSALLGEVDAAPAQAPGEQLGGSREAPIEILQRNPDQPRRTFREEDLEDLSNSIREKGVLQPILVRPSPDTAGEYQIVAGERAWRAAQRAGLKTVPIMVRELDDLAVLEIGIIENVQRADLNVLEEALSYKVLMEKFERTQENIAQTIGKSXSHVANXMRLLXLPDEVQSYLVSGELTAXHARAIAAAADPVALAKQIIEGGLSVRETEALARKAPNLSAGKSKGGRPPRVKDTDTQALESDLSSVLGLDVSIDHRGSTGTLTITYATLEQLDDLCNRLTRGI

The variants in this experiment derive from B1. Briefly: one-hybrid fitness for binding NBS DNA (the Noc-binding site; scaled: cognate 1, non-cognate 0); higher = stronger binding. The note with it: with NBS DNA site. A digest of the protocol:
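The reporter was HIS3, with the binding site 19 bp from the promoter, in E. coli USO used for bacterial one-hybrid selection of Caulobacter ParB libraries with four specificity codons randomised. Growth was on M9 lacking histidine, with 0.1 mM IPTG and 5 mM 3-AT, for 48 hours at 37°C. Illumina sequencing covered plasmids before and after selection; three replicate libraries were pooled and variants with under 10 reads dropped. A fitness score is the log change in variant-to-wild-type read ratio, rescaled to the cognate and non-cognate references.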
For the variant SPMW, the “one-hybrid fitness for binding NBS DNA” value was ≤ 0.2.
For the variant TVAF, the “one-hybrid fitness for binding NBS DNA” value was ≤ 0.2.
On to YCQA, for which the “one-hybrid fitness for binding NBS DNA” value was ≤ 0.2.
For the variant PSGD, the “one-hybrid fitness for binding NBS DNA” value is ≤ 0.2.
With RWRW the figure was ≤ 0.2.
Turning to KMAT, the “one-hybrid fitness for binding NBS DNA” value was ≤ 0.2.
Next, PFAC: ≤ 0.2.
With NSGK the figure was ≤ 0.2.
With GTFD the figure was ≤ 0.2; with WEAC, ≤ 0.2.
Consider LVVM, for which the “one-hybrid fitness for binding NBS DNA” value is ≤ 0.2.
Next, HLIR: ≤ 0.2; LLTT: ≤ 0.2; AGHC: ≤ 0.2.
Next, RLVV: ≤ 0.2; PYFT: ≤ 0.2; SCLN: ≤ 0.2.
Turning to FFQG, the “one-hybrid fitness for binding NBS DNA” value was ≤ 0.2.
Next, NHNS: ≤ 0.2; DAMT: ≤ 0.2.
With VVHE the figure was ≤ 0.2; with RKCQ, ≤ 0.2.
Next, LSQV: ≤ 0.2.
As for AIVC, the “one-hybrid fitness for binding NBS DNA” value was ≤ 0.2.
For the variant APLW, the “one-hybrid fitness for binding NBS DNA” value is ≤ 0.2.
With FEYS the figure was ≤ 0.2; with QPAY, ≤ 0.2.
With QKMC the figure was ≤ 0.2.
With VFYR the figure was ≤ 0.2; with RVRM, ≤ 0.2.
Consider AYAT, for which the “one-hybrid fitness for binding NBS DNA” value was ≤ 0.2.
Next, PFGW: ≤ 0.2; DMQT: ≤ 0.2.
Next, MIAS: ≤ 0.2.
As for TAAN, the “one-hybrid fitness for binding NBS DNA” value was ≤ 0.2.
With FRFR the figure was ≤ 0.2.
As for SCCV, the “one-hybrid fitness for binding NBS DNA” value is ≤ 0.2.
On to MQKR, for which the “one-hybrid fitness for binding NBS DNA” value was ≤ 0.2.
Take YMQS: the “one-hybrid fitness for binding NBS DNA” value is ≤ 0.2.
With HPLW the figure was ≤ 0.2; with INST, ≤ 0.2.
With QAKG the figure was 0.313; with DLPH, ≤ 0.2; with FNAI, ≤ 0.2.
With ICPR the figure was ≤ 0.2; with KEMT, ≤ 0.2.
QNID: the “one-hybrid fitness for binding NBS DNA” value is ≤ 0.2.
Take DVTY: the “one-hybrid fitness for binding NBS DNA” value is ≤ 0.2.
Next, ASQH: ≤ 0.2; KVEI: ≤ 0.2.
Next, RVFF: ≤ 0.2.
Turning to QCQL, the “one-hybrid fitness for binding NBS DNA” value is ≤ 0.2.
As for CKPT, the “one-hybrid fitness for binding NBS DNA” value is ≤ 0.2.
Next, RIID: ≤ 0.2; PWQR: ≤ 0.2; MVRT: ≤ 0.2.
Next, WMIG: ≤ 0.2; GSFP: ≤ 0.2; LVVG: ≤ 0.2.
For GHVL, the “one-hybrid fitness for binding NBS DNA” value was ≤ 0.2.
Next, HMLT: ≤ 0.2.
As to PIKM, the “one-hybrid fitness for binding NBS DNA” value is ≤ 0.2.
With MHRV the figure was ≤ 0.2.
With LIAN the figure was ≤ 0.2; with RGWL, ≤ 0.2; with LRNK, ≤ 0.2.
Consider LRDR, for which the “one-hybrid fitness for binding NBS DNA” value was ≤ 0.2.
On to RGTN, for which the “one-hybrid fitness for binding NBS DNA” value was ≤ 0.2.
Take GSHY: the “one-hybrid fitness for binding NBS DNA” value was ≤ 0.2.
For the variant SQYM, the “one-hybrid fitness for binding NBS DNA” value is ≤ 0.2.
On to RFVS, for which the “one-hybrid fitness for binding NBS DNA” value was ≤ 0.2.
In the case of IAAF, the “one-hybrid fitness for binding NBS DNA” value was ≤ 0.2.
For RMRI, the “one-hybrid fitness for binding NBS DNA” value was ≤ 0.2.
As for AESY, the “one-hybrid fitness for binding NBS DNA” value was ≤ 0.2.
Regarding WCMR, the “one-hybrid fitness for binding NBS DNA” value was ≤ 0.2.
With CSTC the figure was ≤ 0.2.

These data come from a collection of fitness landscapes (doi:10.1016/j.celrep.2020.107928).
